Binding signal (RPM ratio (pull-down/input)) data for 63 sequences are collected here from paper PMC12820563.

Some of the results follow. The list includes weakly bound sequences.

In this assay the target is T1, MBP-FoxP3dN (UniProt Q99JB6).
T1 sequence: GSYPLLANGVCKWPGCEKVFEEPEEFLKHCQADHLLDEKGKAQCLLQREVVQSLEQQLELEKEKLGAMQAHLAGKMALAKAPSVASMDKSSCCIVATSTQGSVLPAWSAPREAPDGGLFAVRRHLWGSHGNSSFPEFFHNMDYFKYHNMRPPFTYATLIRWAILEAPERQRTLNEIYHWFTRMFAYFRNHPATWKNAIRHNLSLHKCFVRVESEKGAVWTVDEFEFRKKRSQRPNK
The assay can be described thus: PD-seq (MBP pull-down with sequencing). The note with it: 20 mM Tris-HCl pH 7.5, 100 mM NaCl, 1.5 mM MgCl2, 0.4 uM protein, 0.1 uM dsDNA library, 30 min, room temperature, amylose pull-down; high values mean tight binding; double strand, one strand shown.
As for “GATGATTGTTCTCCCAGCTGATGAATTACAATAATCGAGTAAACAAATTTTCCTAATCTTTCTGTTCAAGCGCCATCTAC”, the binding signal (RPM ratio (pull-down/input)) was found to be 0.672.
As to “GATGATTGTTCTCCCAGCTGATGAATTGCAAGGGTCGAGTAAACAAATTTTCCTAATCTTTCTGTTCAAGCGCCATCTAC”, the binding signal (RPM ratio (pull-down/input)) worked out at 0.919.
To “GATGATTGTTCTCCCAGCTGATGAATTATTCCTATCGAGTAAACAAATTTTCCTAATCTTTCTGTTCAAGCGCCATCTAC” belongs 0.365; to “GATGATTGTTCTCCCAGCTGATGAATTACATCCATCGAGTAAACAAATTTTCCTAATCTTTCTGTTCAAGCGCCATCTAC”, 0.517; to “GATGATTGTTCTCCCAGCTGATGAATTTCGGCCGTCGAGTAAACAAATTTTCCTAATCTTTCTGTTCAAGCGCCATCTAC”, 0.39.
To “GATGATTGTTCTCCCAGCTGATGAATTCTGAGGATCGAGTAAACAAATTTTCCTAATCTTTCTGTTCAAGCGCCATCTAC” belongs 0.283.
To “GATGATTGTTCTCCCAGCTGATGAATTACCGGCCTCGAGTAAACAAATTTTCCTAATCTTTCTGTTCAAGCGCCATCTAC” belongs 0.378; to “GATGATTGTTCTCCCAGCTGATGAATTAAATCCATCGAGTAAACAAATTTTCCTAATCTTTCTGTTCAAGCGCCATCTAC”, 0.257.
As to “GATGATTGTTCTCCCAGCTGATGAATTCTACCTTTCGAGTAAACAAATTTTCCTAATCTTTCTGTTCAAGCGCCATCTAC”, the binding signal (RPM ratio (pull-down/input)) was found to be 0.358.
In the case of “GATGATTGTTCTCCCAGCTGATGAATTTATATCGTCGAGTAAACAAATTTTCCTAATCTTTCTGTTCAAGCGCCATCTAC”, the binding signal (RPM ratio (pull-down/input)) is 1.4.
To “GATGATTGTTCTCCCAGCTGATGAATTCGCCCCATCGAGTAAACAAATTTTCCTAATCTTTCTGTTCAAGCGCCATCTAC” belongs 0.38; to “GATGATTGTTCTCCCAGCTGATGAATTCCAAGCTTCGAGTAAACAAATTTTCCTAATCTTTCTGTTCAAGCGCCATCTAC”, 0.312; to “GATGATTGTTCTCCCAGCTGATGAATTTTGCCTCTCGAGTAAACAAATTTTCCTAATCTTTCTGTTCAAGCGCCATCTAC”, 5.78.
On to “GATGATTGTTCTCCCAGCTGATGAATTCCGCGTCTCGAGTAAACAAATTTTCCTAATCTTTCTGTTCAAGCGCCATCTAC”, for which the binding signal (RPM ratio (pull-down/input)) came to 4.65.
Consider “GATGATTGTTCTCCCAGCTGATGAATTGTTTAAGTCGAGTAAACAAATTTTCCTAATCTTTCTGTTCAAGCGCCATCTAC”, for which the binding signal (RPM ratio (pull-down/input)) was found to be 0.721.
On to “GATGATTGTTCTCCCAGCTGATGAATTGTCGACATCGAGTAAACAAATTTTCCTAATCTTTCTGTTCAAGCGCCATCTAC”, for which the binding signal (RPM ratio (pull-down/input)) was found to be 0.63.
In the case of “GATGATTGTTCTCCCAGCTGATGAATTCCAGTTTTCGAGTAAACAAATTTTCCTAATCTTTCTGTTCAAGCGCCATCTAC”, the binding signal (RPM ratio (pull-down/input)) stood at 0.472.
The same measure for “GATGATTGTTCTCCCAGCTGATGAATTAGGTCGGTCGAGTAAACAAATTTTCCTAATCTTTCTGTTCAAGCGCCATCTAC”: 0.28.
The same measure for “GATGATTGTTCTCCCAGCTGATGAATTATGTCCGTCGAGTAAACAAATTTTCCTAATCTTTCTGTTCAAGCGCCATCTAC”: 0.701; for “GATGATTGTTCTCCCAGCTGATGAATTCCTGGCATCGAGTAAACAAATTTTCCTAATCTTTCTGTTCAAGCGCCATCTAC”: 0.591.
With “GATGATTGTTCTCCCAGCTGATGAATTGCTCCTTTCGAGTAAACAAATTTTCCTAATCTTTCTGTTCAAGCGCCATCTAC”, the binding signal (RPM ratio (pull-down/input)) is 0.512.
Regarding “GATGATTGTTCTCCCAGCTGATGAATTAGGGACGTCGAGTAAACAAATTTTCCTAATCTTTCTGTTCAAGCGCCATCTAC”, the binding signal (RPM ratio (pull-down/input)) came to 0.349.
As to “GATGATTGTTCTCCCAGCTGATGAATTTTTGAATTCGAGTAAACAAATTTTCCTAATCTTTCTGTTCAAGCGCCATCTAC”, the binding signal (RPM ratio (pull-down/input)) amounted to 0.72.
For “GATGATTGTTCTCCCAGCTGATGAATTCCTCCACTCGAGTAAACAAATTTTCCTAATCTTTCTGTTCAAGCGCCATCTAC”, the binding signal (RPM ratio (pull-down/input)) worked out at 0.236.
The same measure for “GATGATTGTTCTCCCAGCTGATGAATTGTTCCGATCGAGTAAACAAATTTTCCTAATCTTTCTGTTCAAGCGCCATCTAC”: 0.273; for “GATGATTGTTCTCCCAGCTGATGAATTGCGCGTTTCGAGTAAACAAATTTTCCTAATCTTTCTGTTCAAGCGCCATCTAC”: 4.39.
To “GATGATTGTTCTCCCAGCTGATGAATTAACAAACTCGAGTAAACAAATTTTCCTAATCTTTCTGTTCAAGCGCCATCTAC” belongs 0.55.
To “GATGATTGTTCTCCCAGCTGATGAATTCGTAGTATCGAGTAAACAAATTTTCCTAATCTTTCTGTTCAAGCGCCATCTAC” belongs 1.47.
Regarding “GATGATTGTTCTCCCAGCTGATGAATTAAGTTTATCGAGTAAACAAATTTTCCTAATCTTTCTGTTCAAGCGCCATCTAC”, the binding signal (RPM ratio (pull-down/input)) was 4.24.
To “GATGATTGTTCTCCCAGCTGATGAATTCCATCCGTCGAGTAAACAAATTTTCCTAATCTTTCTGTTCAAGCGCCATCTAC” belongs 0.314; to “GATGATTGTTCTCCCAGCTGATGAATTGACCTGATCGAGTAAACAAATTTTCCTAATCTTTCTGTTCAAGCGCCATCTAC”, 0.249; to “GATGATTGTTCTCCCAGCTGATGAATTCAGACCATCGAGTAAACAAATTTTCCTAATCTTTCTGTTCAAGCGCCATCTAC”, 0.403.
The same measure for “GATGATTGTTCTCCCAGCTGATGAATTGGAGGCTTCGAGTAAACAAATTTTCCTAATCTTTCTGTTCAAGCGCCATCTAC”: 0.596; for “GATGATTGTTCTCCCAGCTGATGAATTGGGCAGGTCGAGTAAACAAATTTTCCTAATCTTTCTGTTCAAGCGCCATCTAC”: 0.479.
To “GATGATTGTTCTCCCAGCTGATGAATTGCGGATTTCGAGTAAACAAATTTTCCTAATCTTTCTGTTCAAGCGCCATCTAC” belongs 0.749; to “GATGATTGTTCTCCCAGCTGATGAATTCTCATGTTCGAGTAAACAAATTTTCCTAATCTTTCTGTTCAAGCGCCATCTAC”, 0.416.
“GATGATTGTTCTCCCAGCTGATGAATTTCTGACATCGAGTAAACAAATTTTCCTAATCTTTCTGTTCAAGCGCCATCTAC”: the binding signal (RPM ratio (pull-down/input)) was 0.411.
For the sequence “GATGATTGTTCTCCCAGCTGATGAATTTATCGGTTCGAGTAAACAAATTTTCCTAATCTTTCTGTTCAAGCGCCATCTAC”, the binding signal (RPM ratio (pull-down/input)) worked out at 0.825.
The same measure for “GATGATTGTTCTCCCAGCTGATGAATTTATCGTGTCGAGTAAACAAATTTTCCTAATCTTTCTGTTCAAGCGCCATCTAC”: 2.63; for “GATGATTGTTCTCCCAGCTGATGAATTGCTTCACTCGAGTAAACAAATTTTCCTAATCTTTCTGTTCAAGCGCCATCTAC”: 0.53.
For “GATGATTGTTCTCCCAGCTGATGAATTAGATTTTTCGAGTAAACAAATTTTCCTAATCTTTCTGTTCAAGCGCCATCTAC”, the binding signal (RPM ratio (pull-down/input)) worked out at 0.874.
In the case of “GATGATTGTTCTCCCAGCTGATGAATTGAGAATATCGAGTAAACAAATTTTCCTAATCTTTCTGTTCAAGCGCCATCTAC”, the binding signal (RPM ratio (pull-down/input)) worked out at 0.432.
The same measure for “GATGATTGTTCTCCCAGCTGATGAATTGAGAGCTTCGAGTAAACAAATTTTCCTAATCTTTCTGTTCAAGCGCCATCTAC”: 0.31; for “GATGATTGTTCTCCCAGCTGATGAATTGTTAGACTCGAGTAAACAAATTTTCCTAATCTTTCTGTTCAAGCGCCATCTAC”: 0.492; for “GATGATTGTTCTCCCAGCTGATGAATTCCGCCTATCGAGTAAACAAATTTTCCTAATCTTTCTGTTCAAGCGCCATCTAC”: 3.12.
The same measure for “GATGATTGTTCTCCCAGCTGATGAATTAGTCGAGTCGAGTAAACAAATTTTCCTAATCTTTCTGTTCAAGCGCCATCTAC”: 0.367; for “GATGATTGTTCTCCCAGCTGATGAATTGGGACATTCGAGTAAACAAATTTTCCTAATCTTTCTGTTCAAGCGCCATCTAC”: 1.04.
“GATGATTGTTCTCCCAGCTGATGAATTTTCATTATCGAGTAAACAAATTTTCCTAATCTTTCTGTTCAAGCGCCATCTAC”: the binding signal (RPM ratio (pull-down/input)) amounted to 0.571.
The same measure for “GATGATTGTTCTCCCAGCTGATGAATTTCTCGCGTCGAGTAAACAAATTTTCCTAATCTTTCTGTTCAAGCGCCATCTAC”: 0.439; for “GATGATTGTTCTCCCAGCTGATGAATTTCTGTAGTCGAGTAAACAAATTTTCCTAATCTTTCTGTTCAAGCGCCATCTAC”: 0.385.
For the sequence “GATGATTGTTCTCCCAGCTGATGAATTTGGTGTATCGAGTAAACAAATTTTCCTAATCTTTCTGTTCAAGCGCCATCTAC”, the binding signal (RPM ratio (pull-down/input)) came to 3.25.
The same measure for “GATGATTGTTCTCCCAGCTGATGAATTACCATTATCGAGTAAACAAATTTTCCTAATCTTTCTGTTCAAGCGCCATCTAC”: 0.602; for “GATGATTGTTCTCCCAGCTGATGAATTTACCTTTTCGAGTAAACAAATTTTCCTAATCTTTCTGTTCAAGCGCCATCTAC”: 0.465.
The same measure for “GATGATTGTTCTCCCAGCTGATGAATTATCTGGCTCGAGTAAACAAATTTTCCTAATCTTTCTGTTCAAGCGCCATCTAC”: 0.242; for “GATGATTGTTCTCCCAGCTGATGAATTGATGGCGTCGAGTAAACAAATTTTCCTAATCTTTCTGTTCAAGCGCCATCTAC”: 0.857; for “GATGATTGTTCTCCCAGCTGATGAATTTAGTTCCTCGAGTAAACAAATTTTCCTAATCTTTCTGTTCAAGCGCCATCTAC”: 1.29.
In the case of “GATGATTGTTCTCCCAGCTGATGAATTTCGCAAGTCGAGTAAACAAATTTTCCTAATCTTTCTGTTCAAGCGCCATCTAC”, the binding signal (RPM ratio (pull-down/input)) turned out to be 2.15.
To “GATGATTGTTCTCCCAGCTGATGAATTTATTGCATCGAGTAAACAAATTTTCCTAATCTTTCTGTTCAAGCGCCATCTAC” belongs 3.24.
To “GATGATTGTTCTCCCAGCTGATGAATTTCACACTTCGAGTAAACAAATTTTCCTAATCTTTCTGTTCAAGCGCCATCTAC” belongs 0.382; to “GATGATTGTTCTCCCAGCTGATGAATTCTGGATTTCGAGTAAACAAATTTTCCTAATCTTTCTGTTCAAGCGCCATCTAC”, 0.311; to “GATGATTGTTCTCCCAGCTGATGAATTCGGAGTGTCGAGTAAACAAATTTTCCTAATCTTTCTGTTCAAGCGCCATCTAC”, 1.
The same measure for “GATGATTGTTCTCCCAGCTGATGAATTAACTACCTCGAGTAAACAAATTTTCCTAATCTTTCTGTTCAAGCGCCATCTAC”: 0.294.
Consider “GATGATTGTTCTCCCAGCTGATGAATTTAGACCGTCGAGTAAACAAATTTTCCTAATCTTTCTGTTCAAGCGCCATCTAC”, for which the binding signal (RPM ratio (pull-down/input)) amounted to 0.5.
